# According to PubChem BioAssay AID1159614 (National Center for Advancing Translational Sciences (NCATS), 2016):
# The whole screen tested about 45,000 compounds, of which about 65 (0.1%) were called active. The call rests on the fitted dose curve; in most records, active means well fitted activation curve with a large enough effect; inconclusive means small, poorly fitted or top-dose-only effect; inactive means no such curve, though single readings can be large or run the other way. Some of the results follow.
# Molecular target: Galactocerebrosidase (Homo sapiens) (UniProt P54803)
# Chain of UniProt P54803 (P54803 whole entry, looked up): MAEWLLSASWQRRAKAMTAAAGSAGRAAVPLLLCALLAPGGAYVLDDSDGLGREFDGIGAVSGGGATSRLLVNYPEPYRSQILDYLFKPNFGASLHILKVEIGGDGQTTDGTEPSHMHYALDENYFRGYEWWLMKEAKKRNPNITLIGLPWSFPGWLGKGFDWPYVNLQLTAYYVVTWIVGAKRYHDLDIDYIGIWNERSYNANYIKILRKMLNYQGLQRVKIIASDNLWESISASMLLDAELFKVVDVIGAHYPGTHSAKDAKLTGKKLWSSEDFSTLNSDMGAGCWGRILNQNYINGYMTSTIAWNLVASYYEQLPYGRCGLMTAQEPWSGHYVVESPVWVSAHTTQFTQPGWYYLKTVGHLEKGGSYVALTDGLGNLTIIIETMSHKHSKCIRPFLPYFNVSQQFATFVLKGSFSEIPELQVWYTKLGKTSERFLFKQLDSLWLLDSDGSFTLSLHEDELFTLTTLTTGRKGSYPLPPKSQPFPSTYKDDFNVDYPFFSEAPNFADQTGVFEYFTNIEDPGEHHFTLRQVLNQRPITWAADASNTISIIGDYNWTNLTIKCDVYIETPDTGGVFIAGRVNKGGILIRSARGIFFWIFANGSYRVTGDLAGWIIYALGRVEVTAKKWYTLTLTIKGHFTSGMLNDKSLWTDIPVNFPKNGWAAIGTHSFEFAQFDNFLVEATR
# Assay: A Novel Cell-Based Assay to Identify Small Molecules for B -Galactocerebrosidase; further: nearly all actives have a fitted effect of over 65% in size; on activation: 0% is about no effect
# Conditions: 145M-Twi-hGALC-G270D cells (Twitcher mouse brain line with human GALC G270D), HMU-beta-Gal fluorescence, 48 h; series mostly up to 57.5 µM; activation: at the top concentration
# Outline: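 Fluorogenic HMU-b-Gal hydrolysis (0.1 mM final, pH 5.2 citrate-phosphate with 1 mg/mL sodium taurocholate; carbonate stop buffer) measures mutant GALC activity after compound treatment of live 145M-Twi Twitcher brain cells stably carrying human GALC-G270D, with wild-type GALC line alongside; activation sought.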
# Potency means the concentration at half of the fitted maximal effect.
SMILES,activation,Potency
CS(=O)(=O)c1ncc(N(Cc2ccco2)Cc2cccs2)c(C(=O)Nc2ccccc2F)n1,inactive: -20.6%,–
COc1ccc(Cl)cc1NC(=O)C(C)n1c(=O)cc(C(F)(F)F)c2c(C)nn(C)c21 (stereo not given),inactive: -21.6%,–
CC(C)(C)OC(=O)N1CCC(c2nnc(SCc3ccccc3Cl)o2)CC1,inactive: -10.1%,–
CCc1c(C)sc2c1CCN(C(=O)Nc1ccccc1Cl)C2c1ccc(OC)cc1 (stereo not given),inactive: -8.29%,–
Cc1ccc(-c2noc(-c3ccc(NC4CCCC4)c([N+](=O)[O-])c3)n2)cc1,inactive: 14%,–
Cc1cc(Cl)ccc1NC(=O)C1CCCN1S(=O)(=O)c1ccc2c(c1)CCCC(=O)N2 (stereo not given),inactive: -8.55%,–
CCCCCCCCCCCCCCCC[N+](C)(C)CC,inactive: -16.9%,–
Cc1cc(-n2c(SCc3ccccc3F)nc3[nH]ncc3c2=O)ccc1Cl,inactive: -23.7%,–
CCOC(=O)OC(C)OC(=O)[C@@H]1N2C(=O)[C@@H](NC(=O)[C@H](N)c3ccccc3)[C@H]2SC1(C)C (stereo not given in full),inactive: -14.9%,–
CCOc1ccc(CNC(=O)CCCn2nc(C)c3c(C)n(-c4ccc(C)cc4)nc3c2=O)cc1,inactive: -4.41%,–
COc1ccc(N2C(=O)NC(NS(=O)(=O)c3ccc(NC(C)=O)cc3)(C(F)(F)F)C2=O)cc1 (stereo not given),inactive: -7.67%,–
CC1CCc2onc(C(=O)N3CCN(c4ccc(Cl)cc4)CC3)c2C1 (stereo not given),inactive: -15.2%,–
Cc1ccc(Cn2ccn(Cc3ccc(C)cc3)c(=O)c2=O)cc1,inactive: -12.8%,–
CCN1CCN(C(=O)Cn2c(-c3cccs3)cc3cc(Cl)ccc32)CC1,inactive: -15.1%,–
Cc1ccc(C)c(N2CCN(C(=O)CCc3c(C)nc4c(c3C)c(=O)n(C)c(=O)n4C)CC2)c1,inactive: -4.88%,–
CCc1ccc(NC(=O)Cn2cnc3nc4c(cc3c2=O)CCCC4)cc1,inactive: -31.8%,–
Cc1ccc(C(=O)N2CC(=O)Nc3ccc(Br)cc3C2c2ccc(F)cc2)cc1C (stereo not given),inactive: -2.02%,–
CCOC(=O)c1cc2c(=O)n3ccccc3nc2n(CC(C)C)c1=NC(=O)C(C)(C)Oc1ccc(Cl)cc1,inactive: -14.2%,–
CC(C)CCNC(=O)c1c[nH]c2ccc(S(=O)(=O)Nc3cccc(C(F)(F)F)c3)cc2c1=O,inactive: -11.9%,–
COc1ccccc1CNC(=O)C1CCN(c2ncnc3c2nc2n3CCCCC2)CC1,inactive: -21.6%,–
CCc1ccc(-n2c3nc(=O)[nH]c(=O)c-3cc3c(C)nn(-c4ccccc4)c32)cc1,inactive: -7.63%,–
COc1ccc(C(CNC(=O)c2oc3ccccc3c2C)N2CCCCC2)cc1 (stereo not given),inactive: -13.9%,–
O=C(Cn1c(-c2cccs2)cc2ccccc21)NCCCN1CCN(c2cccc(Cl)c2)CC1,inactive: -11.6%,–
CCc1nnc(NC(=O)CSc2nccn2Cc2ccccc2)s1,inactive: -35.3%,–

SMILES,activation,Potency
O=C1CCCc2cc(S(=O)(=O)N3CCCC(C(=O)NCc4ccccc4Cl)C3)ccc2N1 (stereo not given),inactive: -32.1%,–
COc1cc(Cl)c(C)cc1NC(=O)c1c(C)oc2nc(C)nc(N3CCCC3)c12,inactive: -5.88%,–
Cc1noc(-c2ccc(N3CCCCC3C)c([N+](=O)[O-])c2)n1 (stereo not given),inactive: -2.56%,–
CCC(=O)N1CCc2cc(CNS(=O)(=O)c3ccccc3F)ccc21,inactive: -31%,–
Cc1cc(C)cc(NS(=O)(=O)c2ccc3[nH]cc(C(=O)N4CCCCC4)c(=O)c3c2)c1,inactive: 4.04%,–
Cc1ccc(-c2noc(-c3nnn(CC(=O)Nc4ccc(C)cc4Cl)c3N)n2)cc1,inactive: -4.18%,–
Cc1ccc(-n2c(=O)c3oc4ccccc4c3n(Cc3ccccc3)c2=O)cc1C,inactive: -16.3%,–
CS(=O)(=O)c1ncc(Cl)c(C(=O)N(Cc2ccc(Cl)cc2)Cc2ccco2)n1,inactive: -11.3%,–
Cc1cccc(OCC(=O)Nc2nnc(S(=O)(=O)N3CCCCCC3)s2)c1,inactive: -9.91%,–
Cc1ccc(-n2nc(C(=O)NC(C)C)c(=O)n(C)c2=O)cc1,inactive: -15.2%,–
COc1cccc(CNC(=O)C(Cc2ccccc2)NS(=O)(=O)c2ccc3c(c2)CCN3C(C)=O)c1 (stereo not given),inactive: -13.2%,–
CCOc1ccccc1CNC(=O)c1ccc2c(c1)N(CC)CCS2,inactive: -9%,–
COc1cc(C(=O)Nc2sc3c(c2C#N)CCCC3)c(Br)c(OC)c1OC,inactive: 6.87%,–
Cc1ccc(NC(=O)CCc2nc(-c3ccccc3F)no2)c(C)c1,inactive: -19%,–
CCOc1cc2c(cc1OCC)C(CC(=O)OC)N(C(=O)Nc1cc(C)cc(C)c1)CC2 (stereo not given),inactive: -16.8%,–
CCOC(=O)C1CCN(S(=O)(=O)c2cc(-c3cc(C)no3)ccc2OC)CC1,inactive: -16.6%,–
O=C(COc1ccccc1)Nc1nnc2n1CCS2,inactive: -24.5%,–
CCOC(=O)c1c(C)[nH]c(C)c1S(=O)(=O)NCC(=O)Nc1cc(Cl)ccc1OC,inactive: -4.26%,–
CC(=O)c1ccc(NC(=O)COc2ccccc2-c2nc(C(C)C)no2)cc1,inactive: -15.3%,–
COc1cc(OC)cc(-c2nc3nc(C)c(CCC(=O)Nc4ccccc4)c(C)n3n2)c1,inactive: -12.9%,–
CC(=O)c1ccc(N2CCN(C(=O)Nc3cn(CC(C)C)c(=O)c4ccccc34)CC2)cc1,inactive: -17.4%,–
Cc1ccc(NC(=O)C(Cc2ccccc2)NS(=O)(=O)c2ccc3c(c2)oc(=O)n3C)cc1C (stereo not given),inactive: -16.9%,–
CC(C)(C)C(=O)Cn1c(=O)n(CCCCCC(=O)NCc2ccccc2Cl)c(=O)c2sccc21,inactive: -39.7%,–
COc1ccc(C2CC(=O)Nc3cc4c(cc32)OCO4)c(OC)c1 (stereo not given),inactive: -34.6%,–

SMILES,activation,Potency
CCN1CCN(Cc2nc3cc(NC(=O)c4cccc([N+](=O)[O-])c4)ccc3n2CC)CC1,inactive: -17.2%,–
CCc1ccc(NC(=O)Cn2c(C(=O)OC)cc3oc(C)cc32)cc1,inactive: -6.6%,–
Cc1ccc(C)c(NC(=O)CSc2nnc(NC(=O)Nc3ccccc3)s2)c1,inactive: -9.87%,–
CCc1ccc(C2CC(=O)c3c([nH]c(C(=O)OC4CCCCCC4)c3C)C2)cc1 (stereo not given),inactive: -23.8%,–
COc1ccc(NC(=O)CN2CCN(C3CCCCC3)C(=O)C2=O)cc1,inactive: 0.834%,–
CCCCCCC(=O)Nc1cc2nc3c(nc2cc1C)c(=O)n(C)c(=O)n3C,inactive: -12.5%,–
Cc1ccc(CCNC(=O)C(C)n2nc(C)c3c(C)n(-c4ccc(C)cc4)nc3c2=O)cc1 (stereo not given),inactive: -41.6%,–
CCOC(=O)N1CCC(NC(=O)c2ccc3c(c2)N(Cc2ccc(F)cc2)C(=O)c2ccccc2S3=O)CC1 (stereo not given),inactive: 2.24%,–
COc1ccc(CCNC(=O)c2nc(SCc3ccc(F)cc3)ncc2Cl)cc1OC,inactive: -13.4%,–
Cc1ccccc1OCC(=O)Nc1ccc2[nH]c(=O)sc2c1,inactive: 4.27%,–
CCOc1ccc(CC(=O)NCCc2sc(-c3cccc(F)c3)nc2C)cc1,inactive: -5.26%,–
O=C(NCCS(=O)(=O)N1CCN(c2ccc(F)cc2)CC1)c1ccccc1Br,inactive: -14%,–
CCOc1cccc2sc(NC(=O)c3ccc(S(=O)(=O)N4CCCCC4)cc3)nc12,inactive: -20.4%,–
COc1ccc(NC(=O)c2cc(=O)c3cc(C)cc(C)c3o2)cc1,inactive: -6.75%,–
Cc1nc2c(-c3ccccc3)c(C)[nH]n2c(=O)c1Cc1ccc(Br)cc1,inactive: -25.3%,–
CCOC(=O)c1c(-c2ccc(Br)cc2)csc1NC(=O)c1ccc(C(C)(C)C)cc1,inactive: 4.58%,–
CC1CCCCN1Cc1c(O)ccc2c(=O)c(-c3ccc(Cl)cc3)coc12 (stereo not given),inactive: -8.98%,–
COc1ccc(CNC(=O)C2CCCN(C(=O)c3cnn(-c4ccc(F)cc4)c3-n3cccc3)C2)cc1 (stereo not given),inactive: 1.35%,–
Cc1ccc(CNC(=O)c2cc(=O)c3cc(C)c(C)cc3o2)cc1,inactive: -20.4%,–
CCCS(=O)(=O)c1nc(S(=O)(=O)c2ccc(C)cc2)c(NCC(C)C)s1,inactive: -7.74%,–
CC1CCN(S(=O)(=O)c2ccc3c(ccc(=O)n3CC(=O)NCc3ccccc3)c2)CC1,inactive: -14.3%,–
Cc1ccc(CCNC(=O)c2oc(=O)c3ccccc3c2-c2ccc(C)cc2)cc1,inactive: -2.2%,–
CC(CNc1nc2ccccc2c2nc(-c3ccccc3)nn12)c1ccccc1 (stereo not given),–,active: 25.1 µM
CC(=O)Nc1cccc(NC(=O)CSc2cn(CC(=O)N3CCCC3)c3ccccc23)c1,inactive: -10.1%,–

SMILES,activation,Potency
COc1ccc(NC(=O)c2cc3c(=O)n(C)c4cc(Cl)ccc4c3s2)cc1Cl,inactive: -0.559%,–
Cc1noc2ncnc(N3CCCC(C(=O)Nc4cc(F)ccc4F)C3)c12 (stereo not given),inactive: -12.6%,–
CCCCNC(=O)Cn1c(=O)cc(C)c2c(C)nn(-c3cccc(Cl)c3C)c21,inactive: -2.13%,–
CCc1ccc(-n2c(=O)c3c(C)c(C(=O)N(C)C)sc3n(CC(=O)Nc3cc(Cl)ccc3C)c2=O)cc1,inactive: 11.6%,–
COc1ccccc1NC(=O)C1=C(C)Nc2nc(-c3ccco3)nn2C1c1cccc(C)c1 (stereo not given),inactive: -15.1%,–
CCOC(=O)c1c(C)c(C(=O)NCc2ccc(Cl)cc2)c(C)n1C,inactive: -12.5%,–
CCC(=O)Nc1ccc(C)cc1-c1nc2ccccc2n(CC(=O)c2ccc(C)cc2)c1=O,inactive: -12.5%,–
CC(C)(C)OC(=O)N1CCC(c2c(C(=O)NCc3ccco3)cnn2-c2ccc(F)cc2F)CC1,inactive: -0.0203%,–
Cc1ccc(Sc2c(C)nn(C(=O)c3ccc(Br)cc3)c2C)cc1,inactive: -4.2%,–
COc1ccc(Nc2ncnc3onc(C)c23)c(OC)c1,inactive: -21.3%,–
COc1ccc(Cl)cc1NC(=O)NCCc1c(C)nn(C)c1C,inactive: -12.2%,–
COc1ccc(OC)c(NC(=O)Cn2c(=O)n(Cc3nc(C)no3)c(=O)c3ccccc32)c1,inactive: -16.1%,–
CC(=O)Nc1ccc(NC(=O)c2cc(-c3cccs3)on2)cc1,inactive: -2.24%,–
O=C(CSC1=Nc2ccccc2N=C(c2ccc(F)cc2)C1)Nc1ccc(Cl)cc1,inactive: -15.1%,–
CCc1cccc(C)c1NC(=O)c1ccc2c(c1)CCN2S(=O)(=O)CC,inactive: -7.76%,–
COc1ccc(N2CCN(C(=O)C(C)n3c(=O)cc(C(F)(F)F)c4c(C)nn(C)c43)CC2)cc1 (stereo not given),inactive: -8.76%,–
COc1ccccc1CNS(=O)(=O)c1ccc2c(c1)CC(C)N2C(=O)C1CCC1 (stereo not given),inactive: -7.13%,–
CC(C)(C)c1nnc(NS(=O)(=O)c2ccc(N)cc2)s1,inactive: -13.6%,–
CC1(C(=O)NC2CCCCC2)Cc2ccccc2C(=O)N1Cc1ccc(F)cc1 (stereo not given),inactive: -0.16%,–
Cc1ccc(S(=O)(=O)c2nc(-c3ccco3)oc2SCc2ccc(F)cc2)cc1,inactive: -13.7%,–
Cc1ccc(NC(=O)C2CCCN2S(=O)(=O)c2ccc3c(c2)C(C)(C)C(=O)N3C)cc1 (stereo not given),inactive: -6.2%,–
CCOc1ccc(NC(=O)c2cc(C)nc3c2c(C)nn3-c2cccc(F)c2)cc1,inactive: -12.9%,–
COc1ccc(-c2cc(C)no2)cc1S(=O)(=O)NC1CCC(C)CC1 (stereo not given),inactive: -22.2%,–
